Measured values taken from the supplement of paper PMC11417369.
± gives the standard deviation of the averaged measurements. The list shows a part of the results.

The sequences below were run on PfAP2-I AP2 domain 3 (GST-tagged) (assay: gcPBM binding intensity (ln(normalized median fluorescence intensity)); higher = stronger DNA binding).
How it was run: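 After 1 h on an Agilent 4 × 180k array of primer-extended double-stranded 36-bp intergenic genomic probes and negative controls, bound GST-tagged P. falciparum DNA-binding domains were detected with Alexa488 anti-GST antibody and scanned at 488 nm. The domains had been expressed in E. coli, and binding took place in 1× PBS with 1% milk, 0.2 mg/ml BSA, 0.5% salmon testes DNA and 0.03% Triton X-100. Binding intensity is the highest Masliner-normalised natural-log median intensity across replicate spots of either probe orientation.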

Sequence	gcPBM binding intensity (ln)
TGTATTAATAAAAATACACACATCATATTATAGAAA [CACACA_site7629]	7.6 ± 0.61
ATATATATATAAATATGTACATATATATATTATATA [XGTACX_site120]	8.83 ± 0.057
TATAAGATTATACAAAGTACATATAAATAATATATT [XGTACX_site1917]	7.58 ± 0.39
TGAAATAAAAAATATAGTACTCGTTCGTAACCAAAA [XGTACX_site413]	7.66 ± 0.57
ATGGGTTAAAAATGCACACAAAAAAATATACAGATA [CACACA_site4321]	8.86 ± 0.057
TTAAAAAAAGATTATACACACACATATATAAACATA [CACACA_site8136]	7.63 ± 0.48
TCCTCTTTTATTTTTACACACGCGTAAACATATATA [CACACA_site667]	8.43 ± 0.39
TATATTAAATAAAAAGTGCATGTCTCATAAGATGGA [GTGCAC_site9520]	8.51 ± 0.39
ATAAAATGTTAAGGGTGTACTTTACACATCTCCTAT [XGTACX_site4699]	7.81 ± 0.4
TATAAATAAAGCAGTACACACATTTATTTTAGATAC [CACACA_site7566]	8.17 ± 0.21
ATAGGGAATTTATGCACACAGTTAAGGGGGAAAATT [CACACA_site5183]	9.85 ± 0.13
TTTATACTATAATTATGTACTTATAAAAGGAATAAA [XGTACX_site8027]	7.82 ± 0.27
TATATAAATATACATTGTACTCAACATTTTCATTAA [XGTACX_site3690]	7.72 ± 0.59
ATAAACACATCTATATGTACATATATATATATATAC [XGTACX_site347]	8 ± 0.42
ATGTAAATACATATATGTACACAAATATATATATAT [XGTACX_site3537]	9.27 ± 0.52
AAGAAAAAATATATATATATATATATATATAATATG [TGCATGCA_negctrl_site417]	8.53 ± 0.38
TTATATTATTTTTATACATGCATTTCTATATATTTT [TGCATGCA_site164]	8.59 ± 0.52
ACATAATTAACAAATACACACACACCCACCCACAAA [CACACA_site8069]	8.7 ± 0.69
TTCAATTTTTTATGAACACACAAAAAAAAAAAAAAA [CACACA_site2533]	8.01 ± 0.74
ATATATAAGGATGTCACACATAAATATTAACACTAA [CACACA_site5101]	7.71 ± 0.43
TATTCATAATTTTAATGTACAAAATGGTTTGTAATA [XGTACX_site8493]	7.46 ± 0.46
TTGTAATTTATTCAAACACACAATTTGGACCTTTTT [CACACA_site1063]	7.45 ± 0.51
AAAGATAAATTAAAAAGTACATATTTATTCAATGTA [XGTACX_site8543]	7.45 ± 0.33

Sequence	gcPBM binding intensity (ln)
TATGATATATATAATACACACATATACATAAGATCT [CACACA_site1119]	7.68 ± 0.49
AATATATATATATTATCACACACTCACGTTTGACAA [CACACA_site8130]	7.75 ± 0.51
TAAAAAAAACGAACAAGTACACATAAAAAAAAATTA [XGTACX_site5982]	7.75 ± 0.45
ATTATATCATATATATGTACACATATATAACATGAT [XGTACX_site7]	7.81 ± 0.28
ATCCATCTTTTAATTTGTACTTATTCTTTTTTCTTT [XGTACX_site5299]	8.12 ± 0.66
ATATATATATGTAATAGTACATATGATAGTTTGTCA [XGTACX_site1545]	9.15
ATTAGTTTTATATATAGTACATATAATTTTGAAGGT [XGTACX_site7445]	8.15 ± 0.42
TGGGTGTAGAACAATTGTACTTTGTAAAAATATAAG [XGTACX_site8464]	7.96 ± 0.45
TTTTTTTTCAATGGTTGTACAAAGTAAAACAACAAA [XGTACX_site1582]	7.98 ± 0.38
TTAAATAAAAGGTTTAGTACTTAAAATAAGAAATGA [XGTACX_site6341]	7.77 ± 0.4
GTAAATATAAACTCAGCACACAAACATATATATGTC [CACACA_site9326]	8.09 ± 0.35
TTATATATATTTAAAAAAATAACATAAATAAATAAA [CACACA_negctrl_site347]	7.5 ± 0.59
CACTTTTTTTTTTACTGTACATATACAAATTAAAAA [XGTACX_site1565]	8.06 ± 0.43
TTTTATTTATCTTAATGTACACATTTATATATATAT [XGTACX_site8588]	9.05 ± 0.25
TATAATAATTAAAAGTGTACTAAATTTTTACATATA [XGTACX_site2523]	7.74 ± 0.46
TTCTAAACACATTGACAAATTAATATATTACAGCAA [GTGCAC_negctrl_site121]	7.72 ± 0.38
TTATAATTCTATTATCTGTTCTTTTTATATTTTTTT [CACACA_negctrl_site855]	7.25 ± 0.68
TTATTTTTCAATGAAAAGGATTATATATATATATAT [CACACA_negctrl_site757]	9.38 ± 0.26
AAAATTTATAGTATGGTGCATAAAAATATATATATA	11.4 ± 0.23
TATAAGAAAAATAACACACACATAAACATAAATACA [CACACA_site5536]	7.95 ± 0.58
AAAAAAAAAAAAAAATGTACATAAAAATGATATAAT [XGTACX_site4096]	8.24 ± 0.28
TATATATAGAAACACACACACATATATATATATATA [CACACA_site773]	9.36 ± 0.29
GTATATATATATAAAAGTACATGTTATGAAAAAAAA [XGTACX_site5410]	8.18 ± 0.42

Sequence	gcPBM binding intensity (ln)
TTTTTTCTCAAAAAAAAAACCTATGGTTATTAAGAT [XGTACX_negctrl_site534]	7.35 ± 0.49
ATTAAGTATATTTCTGCACACAAAAAAAAAAACCAA [CACACA_site9342]	8.95 ± 0.13
ATTTATTTGTTTATTTGTTTATTTGTTTATTTGTTT [CACACA_negctrl_site1386]	7.68 ± 0.59
AATTTAATATAATGCACACATAAAAAAAAATTCAAA [CACACA_site2062]	11 ± 0.79
ATGAAAACCATGACGGGTACTCATTTATTATTTTAT [XGTACX_site6724]	7.64 ± 0.59
TTAAGAATCTATACTAGTACATATATGTATACAAGC [XGTACX_site8025]	7.84 ± 0.56
TATATATATATGTGTAGTACAACAAATATGAAAAAT [XGTACX_site4059]	9.365 ± 0.092
ATTGTGTTAATAAAATGTACATTTTCTCTACTTTAA [XGTACX_site1199]	8.02 ± 0.52
TGTAGAACAAAAAATTGTACATATTTGTAAAAAAAA [XGTACX_site3850]	7.71 ± 0.73
CCTAATTTTATTAGGGTGCATTTTTAGTTAAATATA	10.3 ± 0.49
ACAATATATAAAATATGTACATAATATATATAATGA [XGTACX_site8731]	7.75 ± 0.2
TAAGTTATATGTACTACACACGTACACAAAATAAGA [CACACA_site9237]	8.17 ± 0.4
ATCCACAAATTAACAAGTACATATATATATATATAT [XGTACX_site1267]	9.29 ± 0.47
TGATGAAAATTTTTCTGTACAAAAAGTATGAAGGTA [XGTACX_site8901]	8.22 ± 0.64
TTGGATTTTTCCTATGAACACACGGGGTTACAATTA [CACACA_site449]	7.74 ± 0.52
TCCAATAATTTATAAAAAAAAAAAGGGAAAATGTAT [TGCATGCA_negctrl_site492]	7.67 ± 0.72
ATATATTTATTATTAACATGCAATCATTATATATAA [TGCATGCA_site404]	7.58 ± 0.49
TTAATATGAGAATAATGTACAAGAAAATATTACATA [XGTACX_site6609]	7.7 ± 0.32
AAAATAATAAAAAACTGTACGAATTAAAAATTAACA [XGTACX_site8454]	7.46 ± 0.46
TACAACTTAATATGTACACACAAATATATATATATA [CACACA_site5138]	9.19 ± 0.29
GATACCTATAGACACACACACATACCTATATACATA [CACACA_site7586]	8.15 ± 0.49
ATTCATCCAATAATGTGAATTATCATGATAAACTTA [TGCATGCA_negctrl_site406]	7.41 ± 0.61
TTTATAAATAAACACACACACATGTGAACATAAAAA [CACACA_site5110]	7.89 ± 0.58

Sequence	gcPBM binding intensity (ln)
GAAATACATTTTAAAAAATAAGTAATTATAAAATAA [TGCATGCA_negctrl_site303]	7.3 ± 0.59
ATTATTCTATATGAAACATGCATACATTTGTATTTT [TGCATGCA_site823]	7.79 ± 0.47
ATATATGTAAATGAATGTACATTATTTTATATATTA [XGTACX_site8460]	7.59 ± 0.26
ATCAAAATTGTCATTACACACCTTTATTTTTAGAAT [CACACA_site1813]	7.95 ± 0.66
ATTATATATATCAGGTGTACGTAAAAAAAATGGACG [XGTACX_site1028]	8.43 ± 0.52
TTTTTTTTTTTTTTTACACACTCCAATAAAAAAGAA [CACACA_site2119]	8.27 ± 0.73
GAGGTCTTTTTTAATGTGCACATATATATATATATA	10.1 ± 0.13
TTTTTTTATTAATGTAGTACAATATAATGTTATATT [XGTACX_site2295]	7.97 ± 0.3
TAATTTATAAATATAATATTTATGTATATGATGTTT [CACACA_negctrl_site464]	7.59 ± 0.57
TATAAAAATATATTTACACACTATAAATATCGAAAG [CACACA_site6896]	7.71 ± 0.38
TTCAAGATTTATTATACACACATATTAAAATATATA [CACACA_site4479]	7.7 ± 0.35
AATCTATCAAAGTGTACATGCAATAAAAAAAAAAAA [TGCATGCA_site103]	8.34 ± 0.6
AAAAAATTATTATGAACACACATTTATTATATTCAT [CACACA_site1566]	7.39 ± 0.57
AAACATTTTCATTTGACACACATCATATATTTATAT [CACACA_site1794]	7.97 ± 0.71
TTAATGTACAGACACCCACACACAAACAAATATATA [CACACA_site8888]	8.07 ± 0.28
AAAAGAAAAAAAAGTACACACATGTATATTAAGCGT [CACACA_site5402]	8.21 ± 0.4
GCGTGCGTGTACTTAACACACATAATATGTATTTAT [CACACA_site1247]	8.53 ± 0.3
TTTTTTTTTCCCCCATGTACATAAATAAGTATATCT [XGTACX_site6965]	9.21 ± 0.18
CTTTCATTTCTATCTACACACATATTTTTTCCAAGT [CACACA_site2972]	8.18 ± 0.56
ATATGTACTATACGCACACACACTCACATATATATA [CACACA_site3239]	8.85 ± 0.34
